# In PubChem BioAssay AID463173 (ICCB-Longwood Screening Facility, Harvard Medical School, 2010):
# About 1,700 (3.3%) of roughly 52,000 compounds were called active. Rule as the data show it: active = survival mostly below about 52% (no sharp cut-off); inactive = mostly above about 56%. The list shows a part of the results.
# System: Wild type
# Test: S. aureus survival, RN4220 and DeltatarO strains – OD600, teichoic acid synthesis inhibitors, primary screen (AID 463173)
# Conditions: S. aureus RN4220 wild type/DeltatarO growth, OD600, 18 h, hits give low values, screened at 18.75 µg/mL (by protocol)
row,SMILES,survival
1,CN1CCN(Cc2cc3sccc3n2Cc2ccc(F)cc2)CC1,inactive: 119%
2,Cc1cc(C)cc(N(C)S(=O)(=O)c2nnc(NC(=O)COc3ccc(Cl)cc3)s2)c1,inactive: 80%
3,CC(=O)c1cccc(NC(=O)CN2C(=O)CN(C)C(=O)c3ccccc32)c1,inactive: 79%
4,CCc1nc(SCc2cc(=O)c3cc(F)ccc3[nH]2)n[nH]1,inactive: 125%
5,Cc1ccc(N2CCN(c3cc(C)nc4c(-c5ccc(Cl)cc5)c(C)nn34)CC2C)cc1 (configuration not stated),active: 14%
6,NC(=O)Cn1c(=O)n(-c2ccc(F)c(Cl)c2)c(=O)c2sc3ccccc3c21,inactive: 102%
7,CCOc1ccc(NC(=O)c2ccc3c(c2)c(C)c(C)n3Cc2ccc(F)cc2)cc1,inactive: 73%
8,Cc1ccc(NC(=O)Cn2ncc3c4ccccc4n(Cc4ccccc4)c3c2=O)cc1Cl,inactive: 94%
9,Cc1ccc(C)c2sc(N3CCN(C(=O)c4ccco4)CC3)nc12,inactive: 159%
10,Cc1cn2c(=O)c(S(=O)(=O)NC(C)c3ccccc3)c(C)nc2s1 (configuration not stated),inactive: 82%
11,CCC(=O)Nc1ccc(C(=O)CSc2ncc(C#N)c(N)n2)cc1OC,inactive: 106%
12,CN1CC(C(=O)O)CC1=O (configuration not stated),inactive: 112%
13,CCCCCn1c(Br)nc2c1c(=O)n(CC(N)=O)c(=O)n2C,inactive: 100%
14,Cc1cccc(OCc2nnc(SC(C)C(=O)O)n2Cc2ccccc2)c1 (configuration not stated),inactive: 113%
15,Cc1cc2nc(-c3cccc(NC(=O)COc4ccc(C(C)C)cc4)c3)oc2cc1C,inactive: 52%
16,COc1ccc(N2CCN(C(=O)c3c(C)oc4nc(C)nc(N5CCCC5)c34)CC2)cc1,inactive: 87%
17,Cc1ccc(N(C)S(=O)(=O)c2c(-c3ccccc3)csc2C(=O)O)cc1,inactive: 61%
18,COc1ccc(-c2nc(C)c(CCNC(=O)c3cccs3)s2)cc1,inactive: 55%
19,Cc1ccccc1-c1nnc(SCC(=O)N2CCCc3ccccc32)o1,active: 15%
20,CCN(CC)S(=O)(=O)c1cccc(C(=O)Nc2ccccc2)c1,inactive: 114%
21,Cc1nc(-c2ccc(S(=O)(=O)Nc3ccc(OC(F)(F)F)cc3)cc2)co1,inactive: 83%
22,Cc1ccc(NC(=O)N2CCC(CN3CCCCCC3)CC2)c(Cl)c1,inactive: 56%
23,CC(C)c1ccc(N2C(=O)CSC23C(=O)N(Cc2ccccc2F)c2ccccc23)cc1 (configuration not stated),inactive: 127%

row,SMILES,survival
1,CCCNC(=O)c1c(NC(=O)c2ccccc2F)sc2c1CCCCC2,inactive: 82%
2,O=c1cc(CSc2nnc(COc3ccccc3)o2)c2ccccc2[nH]1,inactive: 116%
3,CC(C)Oc1ccc(CNS(=O)(=O)c2csc(C(N)=O)c2)cc1,inactive: 75%
4,COc1ccc(-c2nc(SCC(=O)Nc3ccc4c(c3)OCO4)c(-c3ccc(F)cc3)[nH]2)cc1OC,inactive: 65%
5,O=C1c2ccccc2C(=O)C1(c1ccccc1)N1CCN(c2cccc(C(F)(F)F)c2)CC1,inactive: 109%
6,CCOc1ccccc1NC(=O)CCc1nc(-c2cccc(C)c2)no1,inactive: 79%
7,Cc1ccc(-c2nc(C(=O)Nc3cccc(C#N)c3)c3n2CCCCC3)cc1,inactive: 114%
8,Cc1cccc(C(=O)OCc2cc(=O)n3nc(C4CC4)sc3n2)c1,inactive: 89%
9,COc1ccc(Cl)cc1NC(=O)c1cc2ccccn2n1,inactive: 146%
10,Cc1nc2nncn2c(Nc2ccc(F)cc2)c1C,inactive: 83%
11,CCC(=O)N1CCc2cc(S(=O)(=O)NCCC(=O)NCc3ccc(OC)cc3)ccc21,inactive: 72%
12,COc1cccc(-n2c(=O)c3sccc3n(Cc3cc(=O)n4cc(Cl)ccc4n3)c2=O)c1,inactive: 91%
13,CCNc1nc2ccccc2s1,inactive: 104%
14,CCCn1c(N2CCN(Cc3ccc(Cl)cc3)CC2)nc2ccccc21,inactive: 123%
15,Cc1ccc(C(=O)Nc2cc3cc(Cl)ccc3oc2=O)cc1,inactive: 77%
16,Cc1ccc(-c2nc(CCNC(=O)C(=O)Nc3ccc(F)cc3F)cs2)cc1,inactive: 63%
17,Cc1ccc2c(c1)N(CC(=O)NCCCN1CCCCC1)C(=O)c1cccnc1O2,inactive: 86%
18,COc1ccccc1CNC(=O)CCCN1C(=O)CCn2nc(-c3cn(C)c4ccccc34)cc21,inactive: 69%
19,Cc1ccc(-c2nc3sc(CCNC(=O)c4ccco4)c(C)n3n2)cc1,inactive: 82%
20,CC(C)C(=O)Nc1c(C(=O)N2CCN(c3ccccc3F)CC2)oc2ccccc12,inactive: 49%
21,Fc1ccc(C(c2nnc(-c3ccccc3)o2)N2CCN(c3ccccc3)CC2)c(Cl)c1 (configuration not stated),inactive: 66%
22,Cc1cc(NS(=O)(=O)c2ccc(NC(=S)NC(=O)c3ccccc3)cc2)no1,inactive: 99%
23,Cc1ccc(CSc2nc3ccncc3n2Cc2nc(-c3ccc(Cl)cc3)oc2C)cc1,inactive: 68%

row,SMILES,survival
1,COc1cc(Cl)c(C)cc1NC(=O)c1nn(-c2ccc(C)cc2)c(=O)n(C)c1=O,inactive: 66%
2,CCOc1ccc(S(=O)(=O)N(C(C)=O)c2ccc3oc(C)c(C(=O)OC)c3c2)cc1,inactive: 130%
3,COc1cccc(NC(=O)CSc2c(C)cnc3c2c(=O)n(C)c(=O)n3C)c1,inactive: 111%
4,CCCOC(=O)c1c(NC(=O)c2cc3nc(-c4ccc(OC)cc4)cc(C(F)(F)F)n3n2)sc2c1CCCC2,inactive: 122%
5,COC(=O)CSc1nc(-c2ccccc2)cc(C(F)(F)F)n1,inactive: 111%
6,CCOc1ccc(N2CC(NC(=O)c3cc4ccccc4o3)CC2=O)cc1 (configuration not stated),inactive: 128%
7,COc1ccc2oc(=O)c(C(=O)N3CCN(c4cc(Cl)ccc4Cl)CC3)cc2c1,inactive: 66%
8,Cc1ccc(C)c(NC(=O)Cn2c(-c3nonc3N)nc3ccccc32)c1,inactive: 95%
9,CCC(CC)N1CCN(S(=O)(=O)c2ccc(NC(C)=O)cc2)CC1,inactive: 113%
10,CCOC(=O)c1ccc(NC(=O)C(=O)NCCc2ccc(OC)cc2)cc1,inactive: 81%
11,CCOc1ccc2c(O)csc2c1,inactive: 115%
12,COc1ccccc1N1CCN(C(=O)c2cnn(C(C)(C)C)c2C2CCN(C(=O)OC(C)(C)C)CC2)CC1,inactive: 128%
13,CCCC(=O)Nc1cccc(-c2nc3ncccc3o2)c1,inactive: 88%
14,CC(=O)c1ccc(NC(=O)C2CCCN(S(=O)(=O)c3ccc(Br)s3)C2)cc1 (configuration not stated),inactive: 128%
15,Cc1cccn2c(=O)c3cc(C(=O)NC(C)(C)C)n(C)c3nc12,inactive: 91%
16,CCOC(=O)C1CCN(c2nc3c(S(=O)(=O)c4ccc(CC)cc4)nnn3c3ccc(Cl)cc23)CC1,inactive: 124%
17,Cc1cc(Cl)ccc1NC(=O)CS(=O)(=O)c1cccc2nsnc12,inactive: 140%
18,CCOC(=O)c1ccc(NC(=O)C2CCN(S(=O)(=O)Cc3ccccc3)CC2)cc1,inactive: 87%
19,O=C(NC(=S)NCc1ccccc1)c1ccco1,inactive: 110%
20,CCOc1ccc(NC(=O)c2sc3nc4n(c(=O)c3c2C)CCCC4)cc1,inactive: 86%
21,Cc1cc(C)cc(NC(=O)CSc2oc(-c3cccs3)nc2S(=O)(=O)c2ccc(Br)cc2)c1,inactive: 75%
22,Cc1cccc(NC(=O)c2ccc(F)c(S(=O)(=O)NCc3ccc4c(c3)OCO4)c2)c1,inactive: 63%
23,Cc1ccc(C(=O)NCCSc2c[nH]c3ccccc23)cc1C,inactive: 52%

row,SMILES,survival
1,Cc1ccn2c(Nc3ccc4c(c3)OCO4)c(-c3ccc(C)o3)nc2c1,inactive: 23%
2,CCOc1ccc(N(CC)C(=O)c2cc3c(s2)-c2ccc(Cl)cc2SC3)cc1,inactive: 77%
3,CCc1ccc(NCc2cc3ccc(OC)cc3n(CC(=O)Nc3ccccc3OC)c2=O)cc1,inactive: 71%
4,COC(=O)c1sc2cccc(F)c2c1S(=O)(=O)NC(C)c1ccccc1 (configuration not stated),inactive: 47%
5,COc1ccc(NC(=O)C2(S(=O)(=O)c3ccc(C)cc3)CC2)c(OC)c1,inactive: 92%
6,COc1ccc(-c2c(C)c3ccc(O)c(CN4CCCCC4C)c3oc2=O)cc1OC (configuration not stated),inactive: 83%
7,CCCCOC(=O)OC1CCS(=O)(=O)C1 (configuration not stated),inactive: 100%
8,CCCN(CCC)C(=O)Cn1c(=O)n(-c2ccc(CC)cc2)c(=O)c2c3c(sc21)CCC3,inactive: 97%
9,CCOC(=O)C1CCN(C(=O)c2ccc3c(=O)n4nc(Nc5ccccc5)sc4nc3c2)CC1,inactive: 128%
10,COc1cc(O)ccc1-c1nc2ccc(Br)cn2c1Nc1ccccc1C,inactive: 64%
11,O=C1O/C(=C/C(=O)N2CCOCC2)c2ccccc21,inactive: 113%
12,CCSc1ncc(Cl)c(C(=O)Nc2ccc(S(=O)(=O)N3CCCCC3CC)cc2)n1 (configuration not stated),inactive: 83%
13,CCOc1ccc(NC(c2ccc(Cl)cc2)c2nnc(-c3cccc(F)c3)o2)cc1 (configuration not stated),inactive: 86%
14,Cc1ccc(CN(C(=O)COc2cccc(Cl)c2)c2ccccn2)o1,inactive: 79%
15,O=C(CSc1nccn1Cc1ccc(F)cc1)NC1CCCC1,inactive: 68%
16,O=C(Nc1ccccc1F)C(c1ccccc1)N1Cc2ccccc2C1=O (configuration not stated),inactive: 75%
17,CCCNC(=O)c1cccc(C)c1,inactive: 105%
18,CCCOc1ccccc1C(=O)N1CCCCC1CCN1CCCCC1 (configuration not stated),inactive: 87%
19,CCc1ccc(-n2nc(C)c3c(C(=O)Nc4ccc(Cl)cc4)cc(C)nc32)cc1,inactive: 53%
20,Cc1ccc(C)c(-c2ccc(=O)n(C(C)C(=O)Nc3ccccc3C(F)(F)F)n2)c1 (configuration not stated),inactive: 81%
21,CCCCNC(=O)CSc1nc(-c2ccc(OC)cc2)cc(C(F)(F)F)n1,inactive: 72%
22,CCC(=O)N1c2ccccc2CC1C(=O)NCCc1ccccc1OC (configuration not stated),inactive: 124%
23,COc1ccc(OC)c(-n2nnc(-c3nc(-c4ccc5c(c4)OCO5)no3)c2C)c1,inactive: 70%
